Measurements from ChEMBL document CHEMBL4888484, “Replenishing the malaria drug discovery pipeline: Screening and hit evaluation of the MMV Hit Generation Library 1 (HGL1) against asexual blood stage Plasmodium falciparum ,using a nano luciferase reporter read-out” (2022).
Screen size: about 150,000 compounds; about 540 (0.36%) showed an effect of 50% or more. Some of the results follow.

Each molecule was assayed on Plasmodium falciparum (assay: Primary screen in NF54 nanoGlo assay, in single point, at 2uM, 72h; a lower Z score goes with more inhibition). Settings: timepoint 72 hour.
Assay type: functional, Erythrocyte

| SMILES | % Inhibition [%] | Z score |
| --- | --- | --- |
| CC(Cc1ccc2ccccc2c1)NC(=O)COCC1CCCNC1 (stereo not given) | 0 | 0 |
| CCc1nnc2c(S(=O)(=O)N(Cc3ccccc3F)c3cc(F)cc(F)c3)cccn12 | -2 | 0.2 |
| CCc1nc2ccc(Cl)cn2c1C(=O)Nc1cccc2c1CNC2=O | -1 | 0.19 |
| CN(C)CCCc1nc(C2CC2)nn1-c1ccc(C(F)(F)F)cc1 | -3 | 0.55 |
| COc1ccc2c(c1)CCc1c(C(=O)Nc3ccc4sc(NC(C)=O)nc4c3)n[nH]c1-2 | 10 | -1.96 |
| CCN1CCCC[C@@H]1CNc1cc(C)cc(F)c1S(N)(=O)=O | -12 | 1.62 |
| c1ccc(N2CCC(n3cncn3)CC2)nc1 | -12 | 2.26 |
| CCN(C(=O)Cc1ccon1)c1ccccc1S(=O)(=O)CC | -2 | 0.36 |
| O=C(c1ccccc1)N1CCC([C@H]2c3[nH]cnc3CCN2Cc2cccnc2)CC1 | 0 | -0.04 |
| CCc1nnc(CNC(=O)C2(c3ccccc3C)CCCC2)o1 | -11 | 1.58 |
| CCN(CC)C(=O)C[C@@H]1CCNC[C@@H]1Cc1cc(-c2ccccc2)on1 | 26 | -2.98 |
| CC(C)CC(CC(C)C)NC(=O)CCn1cncn1 | 0 | 0.01 |
| Cc1cc(N2C(=O)C3CCC(c4ccccc4)CC3C2=O)cc(C)c1Br (stereo not given) | -2 | 0.27 |
| CC(=O)Nc1ccc(S(=O)(=O)N2CC[C@H]2c2ccc(Cl)cc2)cc1 | -8 | 1.58 |
| CNC(=O)CN(C)C(=O)[C@@H]1CCCn2c(-c3ccccc3)cnc21 | 9 | -1.13 |
| Cc1nc2ccc(NCC(=O)NCC(F)(F)F)nn2n1 | 2 | -0.38 |
| COc1ccc(CCNC(=O)[C@H]2CCCN(S(=O)(=O)N3CCC(C)CC3)C2)cc1OC | -2 | 0.35 |
| COc1ccc(S(=O)(=O)N2CCOCC2)cc1C(=O)Nc1ccc2c(c1)CCC2 | -7 | 0.99 |
| O=C(NCC1CCN(C(=O)c2cc(=O)n(-c3ccccc3)[nH]2)CC1)[C@@H]1CCCO1 | -9 | 1.14 |
| COC1CCN([C@H]2CCC[C@H]2N(C)C(=O)Nc2ccc(Cn3ccnc3)cn2)C1 (stereo not given in full) | 10 | -1.11 |
| O=C(COCc1ccccc1Cl)Nc1ccc(-n2cc[nH]c2=O)cc1 | -12 | 2.25 |
| CCn1nc(C)c2c(C(=O)N3c4ccccc4C[C@@H]3C)cc(-c3ccc(C)cc3)nc21 | 32 | -3.58 |

| SMILES | % Inhibition [%] | Z score |
| --- | --- | --- |
| CC(C)c1cc(CN(C)CCn2cc[nH]c2=O)on1 | -7 | 0.67 |
| c1cc2nnnn2nc1N(CC1CC1)C1CCCCC1 | -12 | 1.66 |
| COc1ccc(-c2cc3c(=O)n(C[C@H](O)c4ccc(C(C)C)cc4)ccn3n2)cc1 | -13 | 1.51 |
| CC(=O)c1csc(NC(=O)CCN2CCCS2(=O)=O)n1 | 4 | -0.56 |
| Cn1nccc1CN1CC2CCC1(CNC(=O)OC(C)(C)C)CC2 | 3 | -0.38 |
| C[C@H](OC(=O)C1(Cc2nc3ccccc3s2)CCCC1)C(=O)NC(N)=O | -5 | 0.71 |
| O=C(Nc1ccc(F)cc1)N[C@H]1[C@H](O)[C@@H](Oc2ccccc2)[C@@H]2OC[C@H]1O2 | 31 | -3.47 |
| Cc1ccc(-c2ccc(C(=O)N3CCCN(S(C)(=O)=O)CC3)cc2)nn1 | -5 | 0.96 |
| Cn1c(NCc2cn(-c3cccc(Cl)c3Cl)nn2)nc2ccc(C#N)cc21 | 5 | -0.51 |
| CS(=O)(=O)NCCn1cnc(C2CCCC2)cc1=O | -8 | 1.5 |
| O=C(Nc1ccc2c(c1)CCC2)c1ccco1 | -12 | 0.98 |
| Cn1ccnc1CN[C@@]1(C)CCCc2ccccc21 | 11 | -1.27 |
| c1cncc(NCCCNc2ccc3cc[nH]c3n2)c1 | -13 | 1.64 |
| COc1ccsc1[C@H](C)NCc1ccc(OCC2CC2)nc1 | 0 | 0.04 |
| CCC(=O)N1CC[C@H](C(=O)Nc2nc(-c3ccc4c(c3)CCCC4)cs2)C1 | 3 | -0.46 |
| CCc1ccc(C(=O)N(CC(=O)O)CC(C)C)o1 | 0 | 0.01 |
| CCN(CC)S(=O)(=O)c1cc(C(=O)Nc2cc(C)ccn2)n(C)c1 | 11 | -1.33 |
| CC(NCC(=O)NC(=O)NC1CC1)C(C)c1ccccc1 (stereo not given) | -10 | 1.64 |
| O=C(Cn1cc(N[C@H]2CCc3ccccc3C2)cn1)N1CCOCC1 | -2 | 0.24 |
| COc1cccc(-c2nc(COc3cc(-c4ccccc4)c4c(C)nn(C)c4n3)c(C)o2)c1OC | -7 | 1.29 |
| CCC1CCC(NC(=O)c2ccc3c(c2)OCCO3)CC1 (stereo not given) | -13 | 1.23 |
| CN(C)Cc1cccc(C(=O)N(Cc2cccnc2)C2CCCCC2)c1 | -2 | 0.3 |

| SMILES | % Inhibition [%] | Z score |
| --- | --- | --- |
| Cc1cnn(-c2ccncc2NC(=O)C2CCCOC2C)c1 (stereo not given) | 2 | -0.24 |
| O=C(Nc1cccc(F)c1)c1coc(CN2CCN(Cc3ccc(F)cc3F)CC2)n1 | -9 | 1.24 |
| Cc1ccc(C#N)c(NC(=O)c2nc(-c3ccccc3)n(-c3ccccc3)n2)n1 | -7 | 0.77 |
| O=C(NCCCn1cccn1)C1CCN(c2nnc3ccccn23)CC1 | -5 | 0.59 |
| Cc1cccc(N2CCN(C(=O)c3cccc(Nc4nc5ccccc5n5cnnc45)c3)CC2)c1C | 0 | 0 |
| O=C(c1ccco1)N(Cc1cccc(F)c1)c1ccccn1 | -5 | 0.75 |
| Clc1ccccc1-c1cc(Cn2ccnc2-c2ccncc2)no1 | -7 | 1.43 |
| Cc1cnc(CCNC(=O)c2cccn2C)n1C1CCCCC1 | -3 | 0.38 |
| CCN(CC(=O)Nc1ccn(C)n1)C[C@H]1CCCCO1 | 6 | -0.52 |
| COc1ccc(Cn2nc(C3CC3)nc2[C@@H]2CCCCCN2C)cc1 | -7 | 1.46 |
| COc1ccc(OCc2nn(CC(=O)Nc3ccccc3)c(=S)o2)cc1 | -45 | 5.26 |
| Cn1cc([C@H]2CCCN(C(=O)CCc3ccccc3Br)C2)cn1 | -16 | 1.99 |
| CN(Cc1cccnc1)Cc1cnc2ncccn12 | -9 | 1.22 |
| CC(O)CC1CCCCCN1C(=O)c1cc2c(s1)CCC2 (stereo not given) | -11 | 1.24 |
| CCOc1ccccc1C(=O)Nc1cccc(NC(=O)c2ccccc2OCC)n1 | -2 | 0.25 |
| Cc1ccc2cc(CN3C[C@@H](CO)[C@H](c4nc(C)no4)C3)c(O)nc2c1 | -12 | 2.08 |
| CCc1ccc([C@H]2C[C@@H](c3ccc(F)cc3)Nc3nc(N)nn32)cc1 | 2 | -0.2 |
| CC(C)N(Cc1ccccn1)C(=O)CC(F)(F)F | -10 | 1.29 |
| COc1cccc(C(=O)N(Cc2c(-c3ccccc3)noc2N(C)C(C)C)C(C)C)c1 | -4 | 0.63 |
| COC[C@](C)(CCO)NC(=O)Nc1cc(F)cc(Br)c1 | -13 | 1.11 |
| CCc1nnc(C)cc1C(=O)NCC(=O)C(C)(C)C | -8 | 1.51 |
| CC1CC(C)CN(C(=O)C2CCN(S(=O)(=O)c3ccc4c(c3)C(C)(C)C(=O)N4C)CC2)C1 (stereo not given) | -3 | 0.57 |

| SMILES | % Inhibition [%] | Z score |
| --- | --- | --- |
| O=C(C1COc2ccccc2O1)N1CCC(c2ccccc2)S(=O)(=O)CC1 (stereo not given) | -3 | 0.43 |
| CCOC(=O)N1CCN(c2nc3cc4c(cc3cc2CN[C@H]2CCOC(C)(C)C2)CCC4)CC1 | 17 | -2.18 |
| CCCN(Cc1ccsc1)S(C)(=O)=O | -9 | 1.25 |
| O=C(O)c1cncnc1N1C[C@@H]2[C@H](C1)[C@H]2C(=O)O | -1 | 0.24 |
| CC1n2c(nc3ccccc32)S(=O)(=O)C(c2ccccc2)C1(C)O (stereo not given) | 4 | -0.51 |
| Cc1cc(C(=O)Nc2ccnn2[C@@H](C)C(C)C)cc(=O)[nH]1 | -17 | 1.98 |
| O=S1(=O)CC2CC1CN2S(=O)(=O)N1CCCC1 (stereo not given) | -15 | 1.78 |
| O=C(COc1ccc2c(c1)C(=O)CC2)Nc1ccon1 | 22 | -2.84 |
| O=C(CCO)N[C@H](c1cnc2ccccc2c1)C1CC(O)C1 (stereo not given in full) | -7 | 1.43 |
| CC(=O)c1sc(NC(=O)CCc2c(C)nc3c(C#N)cnn3c2C)nc1-c1ccccc1 | -27 | 3.21 |
| CCCn1nc(C2CC2)nc1-c1cc2ccccc2[nH]1 | -8 | 1.74 |
| Cc1cc(NC(=O)N[C@H](c2cnn(C)c2)C(C)C)cc(C)n1 | -8 | 1.17 |
| CCOC(=O)CCC(=O)N1CC[C@H](Oc2cc(C)nc(C)n2)C1 | -9 | 1.4 |
| O=S1(=O)CCC[C@H](NS(=O)(=O)CC23CCC(CC2)C3)C1 | 9 | -1.52 |
| CC(C)(C)NC(=O)c1ccc(Cl)cc1F | -9 | 1.31 |
| CC(=O)NCc1cc(-c2cccs2)nn1C | -10 | 1.31 |
| Cc1cc(C(=O)COc2ccc(Br)cc2F)c(C)n1[C@H]1CCS(=O)(=O)C1 | 1 | -0.16 |
| COc1cccc(-c2nc3c(s2)CN(C(=O)c2ccccc2)CC3)c1 | 3 | -0.35 |
| CN(C)Cc1ccccc1CN(C)Cc1ccc(N(C)C)nc1 | -13 | 1.25 |
